Source: EPA's CvTdb concentration-time database
This continues a long series; more values of the same kind are listed elsewhere.

Assays:
[1] = tested on: Rat; experiment: concentration in plasma after dosing; settings: 8760 h; dosed: 3,3',4,4',5-pentachlorobiphenyl; 1000 mg/kg; oral; Male; Harlan Sprague Dawley
[2] = tested on: Rat; experiment: concentration in liver after dosing; settings: 5088 h; dosed: 3,3',4,4',5-pentachlorobiphenyl; 1000 mg/kg; oral; Female; F344
[3] = tested on: Rat; experiment: concentration in liver after dosing; settings: 8760 h; dosed: 3,3',4,4',5-pentachlorobiphenyl; 1000 mg/kg; oral; Male; Harlan Sprague Dawley
[4] = tested on: Rat; experiment: concentration in liver after dosing; settings: 8760 h; dosed: 3,3',4,4',5-pentachlorobiphenyl; 1000 mg/kg; oral; Male; Harlan Sprague Dawley; remark: listed apart in the source
[5] = tested on: Rat; experiment: concentration in liver after dosing; settings: 3 h; dosed: 3,3',4,4',5-pentachlorobiphenyl; 1000 mg/kg; oral; Female; F344
[6] = tested on: Rat; experiment: concentration in liver after dosing; settings: 1464 h; dosed: 3,3',4,4',5-pentachlorobiphenyl; 1000 mg/kg; oral; Female; Harlan Sprague Dawley
[7] = tested on: Rat; experiment: concentration in liver after dosing; settings: 288 h; dosed: 3,3',4,4',5-pentachlorobiphenyl; 1000 mg/kg; oral; Female; Harlan Sprague Dawley
[8] = tested on: Rat; experiment: concentration in liver after dosing; settings: 2208 h; dosed: 3,3',4,4',5-pentachlorobiphenyl; 1000 mg/kg; oral; Female; Harlan Sprague Dawley
[9] = tested on: Rat; experiment: concentration in brain after dosing; settings: 12 h; dosed: alpha/beta-Thujone mixture; 25 mg/kg; oral; Female; F344
[10] = tested on: Rat; experiment: concentration in plasma after dosing; settings: 0.75 h; dosed: 76231-76-0; 3.0 mg/kg; iv; Female; F344
[11] = tested on: Rat; experiment: concentration in plasma after dosing; settings: 12 h; dosed: alpha/beta-Thujone mixture; 50 mg/kg; oral; Male; F344
[12] = tested on: Rat; experiment: concentration in plasma after dosing; settings: 6 h; dosed: alpha/beta-Thujone mixture; 50 mg/kg; oral; Male; F344
[13] = tested on: Rat; experiment: concentration in brain after dosing; settings: 6 h; dosed: alpha/beta-Thujone mixture; 25 mg/kg; oral; Male; F344
[14] = tested on: Rat; experiment: concentration in brain after dosing; settings: 0.5 h; dosed: alpha/beta-Thujone mixture; 50 mg/kg; oral; Male; F344
[15] = tested on: Rat; experiment: concentration in brain after dosing; settings: 10 min; dosed: alpha/beta-Thujone mixture; 25 mg/kg; oral; Female; F344
[16] = tested on: Rat; experiment: concentration in plasma after dosing; settings: 1 h; dosed: 76231-76-0; 3.0 mg/kg; iv; Male; F344
[17] = tested on: Rat; experiment: concentration in brain after dosing; settings: 0.5 h; dosed: alpha/beta-Thujone mixture; 25 mg/kg; oral; Male; F344
[18] = tested on: Rat; experiment: concentration in brain after dosing; settings: 1 h; dosed: 76231-76-0; 3.0 mg/kg; iv; Male; F344
[19] = tested on: Rat; experiment: concentration in brain after dosing; settings: 1.5 h; dosed: alpha/beta-Thujone mixture; 25 mg/kg; oral; Female; F344
[20] = tested on: Rat; experiment: concentration in brain after dosing; settings: 5 min; dosed: alpha/beta-Thujone mixture; 25 mg/kg; oral; Male; F344
[21] = tested on: Rat; experiment: concentration in brain after dosing; settings: 1.5 h; dosed: alpha/beta-Thujone mixture; 50 mg/kg; oral; Female; F344
[22] = tested on: Rat; experiment: concentration in plasma after dosing; settings: 1 h; dosed: 76231-76-0; 3.0 mg/kg; iv; Female; F344
[23] = tested on: Rat; experiment: concentration in brain after dosing; settings: 0.75 h; dosed: 76231-76-0; 3.0 mg/kg; iv; Female; F344
[24] = tested on: Rat; experiment: concentration in plasma after dosing; settings: 5 min; dosed: alpha/beta-Thujone mixture; 25 mg/kg; oral; Male; F344
[25] = tested on: Rat; experiment: concentration in plasma after dosing; settings: 0.5 h; dosed: alpha/beta-Thujone mixture; 50 mg/kg; oral; Male; F344
[26] = tested on: Rat; experiment: concentration in brain after dosing; settings: 5 min; dosed: alpha/beta-Thujone mixture; 50 mg/kg; oral; Female; F344
[27] = tested on: Rat; experiment: concentration in brain after dosing; settings: 0.75 h; dosed: 76231-76-0; 3.0 mg/kg; iv; Male; F344
[28] = tested on: Rat; experiment: concentration in plasma after dosing; settings: 12 h; dosed: alpha/beta-Thujone mixture; 50 mg/kg; oral; Male; F344; remark: listed apart in the source
[29] = tested on: Rat; experiment: concentration in brain after dosing; settings: 10 min; dosed: alpha/beta-Thujone mixture; 50 mg/kg; oral; Male; F344
[30] = tested on: Rat; experiment: concentration in brain after dosing; settings: 10 min; dosed: alpha/beta-Thujone mixture; 25 mg/kg; oral; Male; F344
[31] = tested on: Rat; experiment: concentration in plasma after dosing; settings: 4 h; dosed: 76231-76-0; 3.0 mg/kg; iv; Male; F344
[32] = tested on: Rat; experiment: concentration in brain after dosing; settings: 6 h; dosed: alpha/beta-Thujone mixture; 50 mg/kg; oral; Female; F344
[33] = tested on: Rat; experiment: concentration in plasma after dosing; settings: 1.5 h; dosed: alpha/beta-Thujone mixture; 25 mg/kg; oral; Male; F344
[34] = tested on: Rat; experiment: concentration in plasma after dosing; settings: 6 h; dosed: alpha/beta-Thujone mixture; 25 mg/kg; oral; Female; F344
[35] = tested on: Rat; experiment: concentration in brain after dosing; settings: 2 min; dosed: alpha/beta-Thujone mixture; 50 mg/kg; oral; Female; F344
[36] = tested on: Rat; experiment: concentration in plasma after dosing; settings: 10 min; dosed: alpha/beta-Thujone mixture; 25 mg/kg; oral; Male; F344
[37] = tested on: Rat; experiment: concentration in brain after dosing; settings: 0.5 h; dosed: alpha/beta-Thujone mixture; 50 mg/kg; oral; Female; F344
[38] = tested on: Rat; experiment: concentration in brain after dosing; settings: 1.5 h; dosed: alpha/beta-Thujone mixture; 50 mg/kg; oral; Male; F344
[39] = tested on: Rat; experiment: concentration in plasma after dosing; settings: 5 min; dosed: 76231-76-0; 3.0 mg/kg; iv; Male; F344
[40] = tested on: Rat; experiment: concentration in brain after dosing; settings: 2 min; dosed: alpha/beta-Thujone mixture; 50 mg/kg; oral; Female; F344; remark: listed apart in the source
[41] = tested on: Rat; experiment: concentration in plasma after dosing; settings: 0.75 h; dosed: 76231-76-0; 3.0 mg/kg; iv; Male; F344
[42] = tested on: Rat; experiment: concentration in plasma after dosing; settings: 2 min; dosed: alpha/beta-Thujone mixture; 25 mg/kg; oral; Male; F344
[43] = tested on: Rat; experiment: concentration in brain after dosing; settings: 0.75 h; dosed: 76231-76-0; 3.0 mg/kg; iv; Male; F344; remark: listed apart in the source

Clc1ccc(-c2cc(Cl)c(Cl)c(Cl)c2)cc1Cl [3,3',4,4',5-pentachlorobiphenyl]
Settings	concentration in liver [pg/g]	concentration in plasma [ng/mL]
[1]	–	0.0269
[2]	998	–
[3]	696	–
[4]	762	–
[5]	6440	–
[6]	4850	–
[7]	7070	–
[8]	2170	–

CC(C)[C@]12CC(=O)[C@H](C)[C@H]1C2 [alpha-Thujone]
Settings	concentration in brain [ng/g]	concentration in plasma [ng/mL]
[9]	13.6	–
[10]	–	34.1
[11]	–	17.6
[12]	–	92.1
[13]	76.4	–
[14]	424	–
[15]	2090	–
[16]	–	92.9
[17]	432	–
[18]	108	–
[19]	815	–
[20]	287	–
[21]	445	–
[22]	–	20.9
[23]	201	–
[24]	–	232
[25]	–	304
[26]	471	–
[27]	209	–
[28]	–	13
[29]	1360	–
[30]	596	–
[31]	–	15.1
[32]	662	–
[33]	–	133
[34]	–	7.17
[35]	16.5	–
[36]	–	280
[37]	2270	–
[38]	1520	–
[39]	–	806
[40]	342	–
[41]	–	92.1
[42]	–	10.8
[43]	132	–
